Data on one molecule can be found in patent US20110229560A1 (published 2011).

The target in this assay is T1, HA-tagged NLRC5 (human NLRC5, full length) (human, UniProt Q86WI3 1-1866).
T1 construct: Expressed from pcDNA3.1 with an HA tag in transfected 293T cells; used in lysates for co-immunoprecipitation; General statements about NLRC5 in overexpression experiments are put on this molecule; also called HA-NLRC5
Put plainly: co-IP (anti-Flag or anti-HA beads) and Western blot, FIG. 15. Background: In western blotting, separated proteins are transferred to a membrane and probed.

B1: TRIF (expressed in 293T cells) (other, UniProt Q8IUC6 1-712, looked up, not shown: small tags and cut ends)
chain: MACTGPSLPSAFDILGAAGQDKLLYLKHKLKTPRPGCQGQDLLHAMVLLKLGQETEARISLEALKADAVARLVARQWAGVDSTEDPEEPPDVSWAVARLYHLLAEEKLCPASLRDVAYQEAVRTLSSRDDHRLGELQDEARNRCGWDIAGDPGSIRTLQSNLGCLPPSSALPSGTRSLPRPIDGVSDWSQGCSLRSTGSPASLASNLEISQSPTMPFLSLHRSPHGPSKLCDDPQASLVPEPVPGGCQEPEEMSWPPSGEIASPPELPSSPPPGLPEVAPDATSTGLPDTPAAPETSTNYPVECTEGSAGPQSLPLPILEPVKNPCSVKDQTPLQLSVEDTTSPNTKPCPPTPTTPETSPPPPPPPPSSTPCSAHLTPSSLFPSSLESSSEQKFYNFVILHARADEHIALRVREKLEALGVPDGATFCEDFQVPGRGELSCLQDAIDHSAFIILLLTSNFDCRLSLHQVNQAMMSNLTRQGSPDCVIPFLPLESSPAQLSSDTASLLSGLVRLDEHSQIFARKVANTFKPHRLQARKAMWRKEQDTRALREQSQHLDGERMQAAALNAAYSAYLQSYLSYQAQMEQLQVAFGSHMSFGTGAPYGARMPFGGQVPLGAPPPFPTWPGCPQPPPLHAWQAGTPPPPSPQPAAFPQSLPFPQSPAFPTASPAPPQSPGLQPLIIHHAQMVQLGLNNHMWNQRGSQAPEDKTQEAE
As for B1, the binding result is on record as “no binding”.
